# Experimental data published in PubChem BioAssay AID624202 (National Center for Advancing Translational Sciences (NCATS), 2012).
# Out of some 380,000 compounds screened, about 4,000 (1.1%) were called active. Inconclusive means that the source gave no clear call. Such entries were picked first, then a sample of the others. Calls follow the shape of the dose curve; as a rule, active = well fitted activation curve with a large enough effect; inconclusive = small, poorly fitted or top-dose-only effect; inactive = no such curve, though single readings can be large or run the other way. Where the call is inconclusive, the potency comes from a doubtful curve fit.
# Experiment: qHTS Assay to Identify Small Molecule Activators of BRCA1 Expression; also: nearly all actives have a fitted effect of over 80% in size
# Details: MCF7-BRCA1-FFLuc reporter, luminescence, 48 h; activation: at 46.1 µM (top of the series), scaled: vehicle 0%, 10 µM genistein 100% unless noted
# How it was run: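 Luminescence from a BRCA1-driven firefly luciferase in MCF7 cells was read after 48 h compound exposure at 37 C. Data normalized against DMSO and a 10microM genistein activation control, then curve-fitted across the titration.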
# Potency is read from the fitted curve at half-maximal effect; tags tell the direction and shape of the fitted curve.
Compound,Potency,activation
O=c1c(O)c(-c2ccccc2)oc2cc(O)cc(O)c12,"inconclusive: 22.4 µM [activator, single point]",–
COc1ccc(-c2csc(NC(=O)C3=COCCO3)n2)cc1OC,"inconclusive: 7.94 µM [activator, partial curve, poor fit]",–
O=C(OCC(=O)c1c[nH]c2ccccc12)C1=COCCO1,"inconclusive: 10 µM [activator, partial curve, poor fit]",–
Cc1oc(C(C)(C)C)cc1C(=O)Nc1cccc(C(=O)O)c1,"inconclusive: 7.94 µM [activator, partial curve, poor fit]",–
Cc1cc(C)cc(NC(=O)c2cc(C)n(Cc3cccs3)c2C)c1,"inconclusive: 2.24 µM [activator, full curve, poor fit]",–
O=C(Nc1ccc2c(c1)OCO2)c1cc(-c2cccc(O)c2)on1,"inconclusive: 11.2 µM [activator, single point]",–
Cc1csc(NC(=O)CSc2nnc(-c3cccnc3)o2)n1,"inconclusive: 11.2 µM [activator, partial curve, poor fit]",–
COc1ccc(-c2cc(C(=O)N3CCCc4ccccc43)no2)cc1,"inconclusive: 11.2 µM [activator, partial curve, poor fit]",–
CCCc1ccc(-c2ccc(/C=C/C(=O)O)cc2)nc1,–,inconclusive: -111% [activator]
Cc1ccccc1NC(=O)C(=O)Nc1ccccc1C,"inconclusive: 1.58 µM [activator, partial curve, poor fit]",–
Cc1ccc(CNc2ccc3c(c2)ncn3C)cc1,active: 5.01 µM,–
O=C(Nc1ccccc1)N1CCCC2CCCCC21 (configuration not stated),active: 11.2 µM,–
CCOc1ccc(CNCc2ccccc2Cl)cc1,"inconclusive: 8.91 µM [activator, partial curve, poor fit]",–
CC(C)Cc1nnc(NC(=O)c2cccc(S(=O)(=O)N3CCOCC3)c2)s1,inactive,–
C=CCNc1nc(C(=O)OC(C)C(=O)c2ccc(C)cc2)cs1 (configuration not stated),"inconclusive: 8.91 µM [activator, partial curve, poor fit]",–
CN(C)c1ccc(CSc2ccccc2)cc1,"inconclusive: 10 µM [activator, partial curve, poor fit]",–
Cn1nnnc1SCC(=O)Nc1nc2c(s1)CCCC2,"inconclusive: 2.51 µM [activator, partial curve, poor fit]",–
CCCNC(=O)c1oc2ccc3c(c2c1C)C=CC(C)(C)O3,"inconclusive: 14.1 µM [activator, partial curve, poor fit]",–
O=[N+]([O-])c1ccc(O)c(/C=N/Nc2ccc(Cl)nn2)c1,–,inconclusive: -80% [activator]
Nc1c(C(=O)Nc2ccccc2F)sc2nc(-c3ccco3)ccc12,"inconclusive: 35.5 µM [activator, single point]",–
CN1CCCN(Cc2nc(-c3ccc(Cl)cc3)no2)CC1,active: 12.6 µM,–

Compound,Potency,activation
Cc1ccc(C)c(NC(=O)c2cnc3n(c2=O)CCS3)c1,"inconclusive: 2 µM [activator, partial curve, poor fit]",–
COC(=O)CCC(=O)OC1(C)C(=O)C=C2C=C(C3CC3)N(Cc3ccc(OC)cc3)C=C2C1=O (configuration not stated),"inconclusive: 35.5 µM [activator, single point]",–
Cc1ccc(NC(=O)C2CCCN(c3ncccn3)C2)cc1F (configuration not stated),"inconclusive: 11.2 µM [activator, partial curve, poor fit]",–
CC(C)Cc1nnc(NC(=O)c2ccc([N+](=O)[O-])cc2)s1,"inconclusive: 14.1 µM [activator, partial curve, poor fit]",–
O=C(Nc1ccc(-c2cn3ccsc3n2)cc1)C1CCCC1,"inconclusive: 2.51 µM [activator, partial curve, poor fit]",–
O=C(CCS(=O)(=O)c1ccccc1)NC12CC3CC(CC(C3)C1)C2,"inconclusive: 39.8 µM [activator, partial curve, poor fit]",–
O=C(N[C@H]1/C=C\[C@@H](O)CCCC1)OCc1ccccc1,active: 4.47 µM,–
CN(C)c1ncnc2c1ncn2[C@H]1CN(Cc2ccc(Cl)cc2)C[C@@H](CO)O1,inactive,–
O=C(Cn1ncc(N2CCCC2)c(Cl)c1=O)c1ccc(Cl)cc1,"inconclusive: 0.891 µM [activator, full curve, poor fit]",–
[C-]#[N+][C@H](O[C@@H]1O[C@H](CO)[C@@H](O)[C@H](O)[C@H]1O)c1ccccc1,inactive,–
COc1cc(C=C(c2nc3ccccc3s2)c2nc3ccccc3s2)ccc1O,inactive,–
CCOC(=O)c1sc(N/N=C/c2ccccc2)nc1C,"inconclusive: 1.26 µM [activator, partial curve, poor fit]",–
COc1ccc(/C=C2/C=Cc3ccccc32)cc1,"inconclusive: 17.8 µM [activator, partial curve, poor fit]",–
Cc1ccn2c(Cc3ccccc3)c(-c3ccc(Br)cc3)nc2c1,"inconclusive: 3.16 µM [activator, partial curve, poor fit]",–
C(=N\N=C\c1cccs1)/c1cccs1,"inconclusive: 10 µM [activator, partial curve, poor fit]",–
CCOC(=O)c1ccccc1NC1c2ccccc2C(=O)N1c1ccc(C)cn1 (configuration not stated),"inconclusive: 20 µM [activator, partial curve, poor fit]",–
Cc1nc(NC(=O)COC(=O)[C@@H](NC(=O)c2ccco2)C(C)C)c(Cl)cc1Cl,inactive,–
CCc1ccc(Nc2nnc(SCC(=O)NCCN3C(=O)CSC3=O)s2)cc1,"inconclusive: 22.4 µM [activator, single point]",–
CCOC(=O)N1CCN(C(=O)c2ccc3nc(N4CCCCC4)sc3c2)CC1,"inconclusive: 15.8 µM [activator, partial curve, poor fit]",–
CC(Oc1ccc(Cl)cc1Cl)c1nc(-c2ccc(NC(=O)c3cccnc3)cc2)no1 (configuration not stated),inactive,–
O=C(Nc1ccc(N2CCCCC2)cc1)c1cncc(Br)c1,"inconclusive: 1.78 µM [activator, full curve, poor fit]",–
